# Where a chain is given by its changes, count along the chain named. In names and notes the source's numbering stands. No constants are given. Whether binding was seen depends on the method and setting. For some of these results: Binding seen in cells or lysates may run through a third protein. Some binding calls cover weakened binding; strength is not graded here.
# T1: LexA-BCL11A-(651–670) (UniProt Q9H165)
# T1 sequence: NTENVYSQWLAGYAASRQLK
# T2: LexA-BCL11A RID2 S657A (UniProt Q9H165)
# T2 sequence: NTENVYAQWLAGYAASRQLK
# T3: LexA-COUP-TFII-LBD-(144–414) (UniProt P24468)
# T3 sequence: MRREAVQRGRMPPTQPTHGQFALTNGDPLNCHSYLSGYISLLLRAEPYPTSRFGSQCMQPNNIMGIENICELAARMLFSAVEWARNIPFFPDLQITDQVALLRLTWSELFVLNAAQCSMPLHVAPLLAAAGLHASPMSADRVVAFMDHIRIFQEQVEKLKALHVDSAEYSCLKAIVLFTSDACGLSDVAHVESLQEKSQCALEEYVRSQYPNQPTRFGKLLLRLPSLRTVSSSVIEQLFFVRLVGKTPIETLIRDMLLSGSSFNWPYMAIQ
# T4: LexA-BCL11A-(310–325) (UniProt Q9H165)
# T4 sequence: PPAMDFSRRLRELAGN
# T5: LexA-BCL11A RID2 Y656A (UniProt Q9H165)
# T5 sequence: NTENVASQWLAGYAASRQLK
# B1: AAD-COUP-TFII-LBD F221A (domain or fragment, UniProt P24468 144-414)
# chain: T3 sequence with F78A
# B2: AAD-COUP-TFII-LBD R228A (domain or fragment, UniProt P24468 144-414)
# chain: T3 sequence with R85A
# B3: AAD-COUP-TFII-LBD V242A (domain or fragment, UniProt P24468 144-414)
# chain: T3 sequence with V99A
# B4: AAD-COUP-TFII-LBD I238A (domain or fragment, UniProt P24468 144-414)
# chain: T3 sequence with I95A
# B5: AAD-COUP-TFII-LBD R246A (domain or fragment, UniProt P24468 144-414)
# chain: T3 sequence with R103A
# B6: AAD-COUP-TFII-LBD V224A (domain or fragment, UniProt P24468 144-414)
# chain: T3 sequence with V81A
# B7: AAD-HNF4γ-LBD-(88–408) (domain or fragment, UniProt Q14541 88-408)
# chain: RISTRRSTFDGSNIPSINTLAQAEVRSRQISVSSPGSSTDINVKKIASIGDVCESMKQQLLVLVEWAKYIPAFCELPLDDQVALLRAHAGEHLLLGATKRSMMYKDILLLGNNYVIHRNSCEVEISRVANRVLDELVRPFQEIQIDDNEYACLKAIVFFDPDAKGLSDPVKIKNMRFQVQIGLEDYINDRQYDSRGRFGELLLLLPTLQSITWQMIEQIQFVKLFGMVKIDNLLQEMLLGGASNDGSHLHHPMHPHLSQDPLTGQTILLGPMSTLVHADQISTPETPLPSPPQGSGQEQYKIAANQASVISHQHLSKQKQL
# B8: AAD-ERRα-LBD-(169–423) (domain or fragment, UniProt P11474 169-423)
# chain: PLPFPGPFPAGPLAVAGGPRKTAAPVNALVSHLLVVEPEKLYAMPDPAGPDGHLPAVATLCDLFDREIVVTISWAKSIPGFSSLSLSDQMSVLQSVWMEVLVLGVAQRSLPLQDELAFAEDLVLDEEGARAAGLGELGAALLQLVRRLQALRLEREEYVLLKALALANSDSVHIEDAEAVEQLREALHEALLEYEAGRAGPGGGAERRRAGRLLLTLPLLRQTAGKVLAHFYGVKLEGKVPMHKLFLEMLEAMMD
# B9: AAD-COUP-TFII-LBD Δ12-(144–392) (domain or fragment, UniProt P24468 144-392)
# chain: MRREAVQRGRMPPTQPTHGQFALTNGDPLNCHSYLSGYISLLLRAEPYPTSRFGSQCMQPNNIMGIENICELAARMLFSAVEWARNIPFFPDLQITDQVALLRLTWSELFVLNAAQCSMPLHVAPLLAAAGLHASPMSADRVVAFMDHIRIFQEQVEKLKALHVDSAEYSCLKAIVLFTSDACGLSDVAHVESLQEKSQCALEEYVRSQYPNQPTRFGKLLLRLPSLRTVSSSVIEQLFFVRLVGKTPI
# B10: AAD-EAR2-LBD-(121–399) (domain or fragment, UniProt P10588 121-399)
# chain: MRKEAVQRGRIPHSLPGAVAASSGSPPGSALAAVASGGDLFPGQPVSELIAQLLRAEPYPAAAGRFGAGGGAAGAVLGIDNVCELAARLLFSTVEWARHAPFFPELPVADQVALLRLSWSELFVLNAAQAALPLHTAPLLAAAGLHAAPMAAERAVAFMDQVRAFQEQVDKLGRLQVDSAEYGCLKAIALFTPDACGLSDPAHVESLQEKAQVALTEYVRAQYPSQPQRFGRLLLRLPALRAVPASLISQLFFMRLVGKTPIETLIRDMLLSGSTFNWP
# B11: COUP-TFII (pTL1-COUP-TFII), HEK293 (protein, UniProt P24468 1-414)
# chain: MAMVVSTWRDPQDEVPGSQGSQASQAPPVPGPPPGAPHTPQTPGQGGPASTPAQTAAGGQGGPGGPGSDKQQQQQHIECVVCGDKSSGKHYGQFTCEGCKSFFKRSVRRNLSYTCRANRNCPIDQHHRNQCQYCRLKKCLKVGMRREAVQRGRMPPTQPTHGQFALTNGDPLNCHSYLSGYISLLLRAEPYPTSRFGSQCMQPNNIMGIENICELAARMLFSAVEWARNIPFFPDLQITDQVALLRLTWSELFVLNAAQCSMPLHVAPLLAAAGLHASPMSADRVVAFMDHIRIFQEQVEKLKALHVDSAEYSCLKAIVLFTSDACGLSDVAHVESLQEKSQCALEEYVRSQYPNQPTRFGKLLLRLPSLRTVSSSVIEQLFFVRLVGKTPIETLIRDMLLSGSSFNWPYMAIQ
# B12: AAD-VDR-LBD-(123–426) (domain or fragment, UniProt P11473 123-426)
# chain: KLSEEQQRIIAILLDAHHKTYDPTYSDFCQFRPPVRVNDGGGSHPSRPNSRHTPSFSGDSSSSCSDHCITSSDMMDSSSFSNLDLSEEDSDDPSVTLELSQLSMLPHLADLVSYSIQKVIGFAKMIPGFRDLTSEDQIVLLKSSAIEVIMLRSNESFTMDDMSWTCGNQDYKYRVSDVTKAGHSLELIEPLIKFQVGLKKLNLHEEEHVLLMAICIVSPDRPGVQDAALIEAIQDRLSNTLQTYIRCRHPPPGSHLLYAKMIQKLADLRSLNEEHSKQYRCLSFQPECSMKLTPLVLEVFGNEI
# B13: AAD-RARα-LBD-(200–462) (domain or fragment, UniProt P10276 200-462)
# chain: PALCQLGKYTTNNSSEQRVSLDIDLWDKFSELSTKCIIKTVEFAKQLPGFTTLTIADQITLLKAACLDILILRICTRYTPEQDTMTFSDGLTLNRTQMHNAGFGPLTDLVFAFANQLLPLEMDDAETGLLSAICLICGDRQDLEQPDRVDMLQEPLLEALKVYVRKRRPSRPHMFPKMLMKITDLRSISAKGAERVITLKMEIPGSMPPLIQEMLENSEGLDTLSGQPGGGGRDGGGLAPPPGSCSPSLSPSSNRSSPATHSP
# Target: T1, LexA-BCL11A-(651–670)
# Experiment: two-hybrid; S. cerevisiae L40; LexA DBD fusion with VP16 AAD-NR fusion; β-galactosidase activity in cell-free extracts; vehicle only or no ligand
row,binding,Binder
1,no binding,B1
2,binds,B2
3,binds,B3
4,binds,B4
5,binds,B5
6,no binding,B6
7,no binding,B7
8,no binding,B8
9,no binding,B9
10,binds,B10

# Target: T2, LexA-BCL11A RID2 S657A
# Experiment: as above
row,binding,Binder
1,binds,B10

# Target: T3, LexA-COUP-TFII-LBD-(144–414)
# Experiment: as above
row,binding,Binder
1,binds,B1
2,no binding,B9

# Target: T4, LexA-BCL11A-(310–325)
# Experiment: as above
row,binding,Binder
1,no binding,B1
2,binds,B2
3,binds,B3
4,binds,B4
5,binds,B5
6,binds,B6
7,no binding,B7
8,no binding,B8
9,no binding,B9
10,binds,B10

# Target: T5, LexA-BCL11A RID2 Y656A
# Experiment: as above
row,binding,Binder
1,binds,B10

# Target: FLAG-BCL11A-XL Y656A/W659A, HEK293 (UniProt Q9H165)
# Experiment: co-IP; HEK293 co-transfected; nuclear extracts in Triton X-100 lysis buffer; FLAG-tagged BCL11A-XL precipitated with anti-FLAG M2; Western blot
row,binding,Binder
1,binds,B11

# Target: FLAG-BCL11A-XL (WT), HEK293 (UniProt Q9H165)
# Experiment: as above
row,binding,Binder
1,binds,B11

# Target: FLAG-BCL11A-XL L319A, HEK293 (UniProt Q9H165)
# Experiment: as above
row,binding,Binder
1,binds,B11

# Target: T1, LexA-BCL11A-(651–670)
# Experiment: two-hybrid; S. cerevisiae L40; LexA DBD fusion with VP16 AAD-NR fusion; β-galactosidase activity in cell-free extracts; 10^-6 M cognate ligand added
row,binding,Binder
1,no binding,B12
2,no binding,B13

# Target: T4, LexA-BCL11A-(310–325)
# Experiment: as above
row,binding,Binder
1,no binding,B12
2,no binding,B13

# Reference: PMC3834829
